Assay results taken from the RNAGym collection of RNA variant scans (doi:10.7554/elife.90254).
The source gives no read counts; variants with many changes may rest on few reads.

B1: LINE1-mini (parent)
chain: GGCAGAGCUCAACACAGCGUGGCAAAGUGGCUGUGGCUAGACUGCC

Variants of: B1
Test: self-cleavage, relative activity (ratio to wild type); higher = more cleavage; in vitro, sequencing; the parent is a self-cleaving ribozyme

Row | Variant | self-cleavage
1 | G1A C10A C23G U38A | 0.07
2 | G1A C10A C31A | 0.04
3 | G1A C10A G19A A39U | 1.22
4 | G1A C10A G27A C37U A41C | 0.02
5 | G1A C10A G35A | 0.05
6 | G1A C10A U20C A41U | 0.02
7 | G1A C10A U20G C31U | 0.06
8 | G1A C10G A11C G35U A41C | 0.01
9 | G1A C10G A12C | 0.05
10 | G1A C10G U20A C23G G36C | 0.01
11 | G1A C10U A12C C18U G36U C46A | 0.04
12 | G1A C10U A25C G27A | 0.34
13 | G1A C10U A41G | 0
14 | G1A C10U C18A G27C C31G | 0.07
15 | G1A C10U C18U G36C G40A | 0.09
16 | G1A C10U C23U G44C | 0.27
17 | G1A C10U G19U | 0.27
18 | G1A C10U G21A G33U | 0.06
19 | G1A C13A A16U U20A C23A C31A | 0.04
20 | G1A C13A A25G | 0.06
21 | G1A C13A G36A C46G | 0.63
22 | G1A C13G A14U A39G A41C | 0.03
23 | G1A C13G A39C | 0.06
24 | G1A C13G G22U G29A | 0.44

Row | Variant | self-cleavage
25 | G1A C13G G30C U32C G44C | 0.02
26 | G1A C13G G44U | 0.04
27 | G1A C13G U20G G22U A25C | 0.13
28 | G1A C13G U28G C31U | 0.07
29 | G1A C13G U43G | 0.04
30 | G1A C13U A16U G40C | 0.08
31 | G1A C13U C31G | 0.05
32 | G1A C13U G27U A41G | 0.11
33 | G1A C15A A24C | 0.04
34 | G1A C15A A24C C45A | 0.03
35 | G1A C15A G17U C23A | 0.06
36 | G1A C15A G27C G36U | 0.02
37 | G1A C15A G36U | 0.07
38 | G1A C15G C18A U28C G30C C37A U38G | 0
39 | G1A C15G G17C A41U C42G | 0.03
40 | G1A C15G G17U | 0.06
41 | G1A C15G G21C C42U | 0.03
42 | G1A C15G G30A G33C G35U | 0.04
43 | G1A C15U A39C C46A | 0.09
44 | G1A C15U C31U | 0.06
45 | G1A C15U G17U | 0.08
46 | G1A C15U G19U A25U G33A U43C | 0.26
47 | G1A C15U G33A C45U | 0.16
48 | G1A C15U U20C | 0.9

Row | Variant | self-cleavage
49 | G1A C18A A25U C37A | 0.13
50 | G1A C18A C23G A39U | 2.47
51 | G1A C18A C31U G40A | 0.02
52 | G1A C18A G19A A25C G44C | 0.03
53 | G1A C18A G30A | 0.25
54 | G1A C18A G35A G36A G44U | 0.04
55 | G1A C18G A39U G40A | 0.01
56 | G1A C18G C42G | 0.08
57 | G1A C18G G19A U20C G29A C45A | 0
58 | G1A C18G G35C C46A | 0.03
59 | G1A C18G U32C | 0.04
60 | G1A C18U A24C | 0.62
61 | G1A C18U C31U G36C | 0.08
62 | G1A C18U G19A C23A C45G | 0.43
63 | G1A C23A C37U | 0.03
64 | G1A C23A G30U G35A U38G | 0.03
65 | G1A C23G A25G U28G C31G G33C U34C | 0.07
66 | G1A C23G U38A | 0.25
67 | G1A C23U A26G U28C U32C A39C | 0.04
68 | G1A C23U C31A | 0.18
69 | G1A C23U C31G G33U | 0.01
70 | G1A C23U C37A | 0.08
71 | G1A C31A C42U G44U | 0.04
72 | G1A C31A G40C | 0.08

Row | Variant | self-cleavage
73 | G1A C31A G44A | 0.03
74 | G1A C31G G36U | 0.15
75 | G1A C31U C42U | 0.04
76 | G1A C31U C45A | 0.03
77 | G1A C31U G40A | 0.01
78 | G1A C31U G40C | 0.06
79 | G1A C31U G40C C45U | 0.05
80 | G1A C37G U38C | 0.24
81 | G1A C42A G44A | 0.02
82 | G1A C42G C45A | 0.03
83 | G1A C42U U43C C46G | 0.19
84 | G1A G2A A12C G17C | 0.11
85 | G1A G2A A16C | 0.22
86 | G1A G2A A24C G27A U28G G35C | 0.76
87 | G1A G2A A25C U28C U34C | 0.56
88 | G1A G2A A39G | 1
89 | G1A G2A C8U U9C C15A U32G C37U C45A | 0.1
90 | G1A G2A C10G C18G G19C C23A A24G | 0.02
91 | G1A G2A C31A U32A G33U | 0.61
92 | G1A G2A C31G U38G U43G | 0.08
93 | G1A G2A G5U | 0.95
94 | G1A G2A G7A C37A | 1.36
95 | G1A G2A G7C | 1.61
96 | G1A G2A G17A C18G A26G | 0.73

Row | Variant | self-cleavage
97 | G1A G2A G36U | 0.96
98 | G1A G2A U32A G36A | 0.17
99 | G1A G2C A4G G30A U34G U38G | 0.04
100 | G1A G2C A11G C15U A41C C46A | 0
101 | G1A G2C C8U C10A C37U | 0.02
102 | G1A G2C C10A C31U | 0.04
103 | G1A G2C C13A A41U | 0.21
104 | G1A G2C C15A G44U | 0.1
105 | G1A G2C C31U G36U U43A | 0.01
106 | G1A G2C G5A C8U A24C | 0.13
107 | G1A G2C G5A C15G G17A | 0.47
108 | G1A G2C G17U C18U | 0.03
109 | G1A G2C G21U U32G | 0.05
110 | G1A G2C G35A G44U | 0.28
111 | G1A G2C U9A G17A G29C | 0.1
112 | G1A G2U A4U C10G A25G G44A | 0.02
113 | G1A G2U A6G C31U C45A | 0.02
114 | G1A G2U A6G G22A U34C | 0.06
115 | G1A G2U A6U G7C C10G U34C G40A C46U | 0.04
116 | G1A G2U A11U U38C | 0.03
117 | G1A G2U A14C | 0.04
118 | G1A G2U A16C C42U | 0.02
119 | G1A G2U A16U U38G | 0.02
120 | G1A G2U A25G G30U C37U | 0.06

Row | Variant | self-cleavage
121 | G1A G2U C3A A41U | 1.97
122 | G1A G2U C3U C10G U28G | 0.03
123 | G1A G2U C8U C18G G27U G36C | 0.17
124 | G1A G2U C10A A14C G22U G27C U28A G40U | 0.01
125 | G1A G2U G5U C10A | 0.13
126 | G1A G2U G7A U20A | 0.21
127 | G1A G2U G19A G35A G40C | 0.03
128 | G1A G2U G21U U38A C45A | 0.17
129 | G1A G2U U28G C42G | 0.03
130 | G1A G5A A11C G22A U28G C31U | 0.03
131 | G1A G5A A12G C18U | 0.17
132 | G1A G5A A24U C31G C42U | 0.04
133 | G1A G5A C8U A12C A14C A16U C42G G44U | 0.02
134 | G1A G5A C10A C37A | 0.05
135 | G1A G5A C10A G30U | 0.14
136 | G1A G5A C42A C45G | 0.12
137 | G1A G5A C46G | 0.21
138 | G1A G5A G7C C18G G27U A41G | 0.48
139 | G1A G5A G17U U20C A26U C31U | 0.24
140 | G1A G5A G36U U43C | 0.09
141 | G1A G5A U9A C31A G44A | 0.23
142 | G1A G5C A11G A12U C15U C23G A24C G29A G36C | 0.01
143 | G1A G5C A12C G33A G36A | 0.05
144 | G1A G5C A24U A39G | 0.05

Row | Variant | self-cleavage
145 | G1A G5C C10A A14C C37G | 0.04
146 | G1A G5C C13U A16G G33U | 0.02
147 | G1A G5C C15U G21C C31G | 0.1
148 | G1A G5C C23A G35U | 0.07
149 | G1A G5C C31A | 0.05
150 | G1A G5C G7C A26U | 0.3
151 | G1A G5C G7C G19A U34C G36U | 0.14
152 | G1A G5C G27C G29U C46U | 0.02
153 | G1A G5C U32A C45A | 0.1
154 | G1A G5C U34C | 0.15
155 | G1A G5U A6U C18G G19C U20A G33U | 0.06
156 | G1A G5U A12C | 0.04
157 | G1A G5U C13U A25U U28A C46G | 0.06
158 | G1A G5U C31G G40C | 0.04
159 | G1A G5U G7C U9G A16G C18U C46G | 0.04
160 | G1A G5U G19U | 0.04
161 | G1A G5U G21U | 0.13
162 | G1A G5U U9C C10A G44C | 0.03
163 | G1A G5U U20G A41C | 0.1
164 | G1A G5U U28G G33A G44C | 0.02
165 | G1A G5U U32G C42A | 0.07
166 | G1A G7A A12G U28G G30C C46G | 0.07
167 | G1A G7A A14C | 0.12
